# Assay results: PubChem BioAssay AID2676 (National Center for Advancing Translational Sciences (NCATS), 2010)
# About 1,100 (0.3%) of roughly 370,000 compounds were called active. Inconclusive results, whose numbers are uncertain, are shown with a selection of clear calls. Calls come from the whole dose curve; as a rule, active = well fitted activation curve with a large enough effect; inconclusive = small, poorly fitted or top-dose-only effect; inactive = flat fitted curve, though single readings scatter. Potencies of inconclusive entries are doubtful fits and often do not repeat.
# Target: Relaxin receptor 1 (Homo sapiens) (UniProt Q9HBX9)
# Test: qHTS Assay for Agonists of the Relaxin Receptor RXFP1; note: nearly all actives have a fitted effect of over 60% in size
# Settings: HEK293T-RXFP1 cAMP TR-FRET, 30 min; series mostly up to 57.5 µM
# Procedure, shortened: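 cAMP rise read by TR-FRET after 30 min, 37C compound exposure (up to 58 uM) in RXFP1-transfected HEK293 cells with Ro 20174 present. EC50 from Hill-equation fits, with 29 nM porcine relaxin as 100% and buffer as basal.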
# Potency is the fitted concentration of half-maximal effect; tags give direction and shape of the fitted curve.
# UniProt Q9HBX9, sequence (Q9HBX9 whole entry, looked up): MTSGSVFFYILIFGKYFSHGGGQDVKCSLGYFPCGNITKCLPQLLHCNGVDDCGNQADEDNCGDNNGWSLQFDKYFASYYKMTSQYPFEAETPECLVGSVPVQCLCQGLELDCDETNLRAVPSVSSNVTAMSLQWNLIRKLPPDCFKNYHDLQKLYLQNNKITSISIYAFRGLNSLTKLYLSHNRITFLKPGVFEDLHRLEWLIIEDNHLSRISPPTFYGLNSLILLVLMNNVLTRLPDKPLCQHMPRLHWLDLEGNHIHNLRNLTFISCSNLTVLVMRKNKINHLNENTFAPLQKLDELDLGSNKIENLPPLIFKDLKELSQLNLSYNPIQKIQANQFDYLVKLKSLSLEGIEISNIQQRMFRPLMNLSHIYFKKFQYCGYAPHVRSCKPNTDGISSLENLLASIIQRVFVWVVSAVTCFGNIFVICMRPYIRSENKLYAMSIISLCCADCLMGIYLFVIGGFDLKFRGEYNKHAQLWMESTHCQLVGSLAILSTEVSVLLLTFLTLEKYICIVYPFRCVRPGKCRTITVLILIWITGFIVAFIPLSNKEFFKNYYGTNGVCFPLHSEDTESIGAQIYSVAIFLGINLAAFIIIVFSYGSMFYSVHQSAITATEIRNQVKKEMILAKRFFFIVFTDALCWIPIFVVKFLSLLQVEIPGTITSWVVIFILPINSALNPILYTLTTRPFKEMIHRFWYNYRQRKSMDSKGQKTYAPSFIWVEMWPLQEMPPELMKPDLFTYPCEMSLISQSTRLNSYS
row,SMILES,Potency
1,COc1cccc(NC(=O)N2CCc3ccccc3C2)c1,inactive
2,Cc1ccc2nc(Cn3cc(C(F)(F)F)cc(Cl)c3=O)cc(=O)n2c1,"inconclusive: 25.1 µM [activator, partial curve]"
3,Cc1cc(NC(=O)CSc2nc(-c3ccccc3F)nc3c2c(=O)n(C)c(=O)n3C)no1,"inconclusive: 31.6 µM [activator, partial curve]"
4,CC(=O)N1CCc2c(sc(NC(=O)c3ccc4c(c3)OCCO4)c2C#N)C1,"inconclusive: 39.8 µM [activator, single point]"
5,COc1ccc(-c2nsc(NC(=O)COc3ccc(C)c(C)c3)n2)cc1,"inconclusive: 25.1 µM [activator, single point]"
6,O=C(Nc1ccccn1)c1ccc2c(c1)S(=O)(=O)c1ccccc1C2=O,"inconclusive: 39.8 µM [activator, single point]"
7,CCOc1ccccc1NC(=O)c1cn(C2CCCC2)c(=O)c2c1c1ccccc1n2C,"inconclusive: 5.62 µM [activator, single point]"
8,CC1CCC2(CC1)NC(=O)N(Cc1cc(=O)n3ccsc3n1)C2=O (stereo not drawn),"inconclusive: 25.1 µM [activator, partial curve]"
9,c1ccc(Cc2nnc(Sc3ccccc3)c3ccccc23)cc1,"inconclusive: 39.8 µM [activator, single point]"
10,COc1cccc(NC(=O)Cn2cc(C(=O)C3CCCCC3)c3ccccc32)c1,"inconclusive: 22.4 µM [activator, partial curve]"
11,O=C(O)CCC(=O)N1CCN(c2nc(-c3ccccc3Cl)c3cc(Br)ccc3n2)CC1,"inconclusive: 14.1 µM [activator, partial curve]"
12,Cn1c(=O)c2c(nc(Sc3ccccc3N)n2C)n(C)c1=O,"inconclusive: 31.6 µM [activator, single point]"
13,Cn1c(=O)c2c(nc(CN3CCc4ccccc4C3)n2CCCO)n(C)c1=O,"inconclusive: 25.1 µM [activator, partial curve]"
14,CSCC[C@H](NC(=O)C1CCC(CNC(=O)[C@@H]2CCCN2C(=O)OC(C)(C)C)CC1)C(=O)O (stereo partly drawn),inactive
15,O=C(NC1CC(=O)N(c2ccc(Cl)cc2)C1)C(=O)c1c[nH]c2ccccc12 (stereo not drawn),"inconclusive: 39.8 µM [activator, single point]"
16,CCOC(=O)CNC(=O)Cn1cnc2c(oc3ccccc32)c1=O,"inconclusive: 15.8 µM [activator, partial curve]"
17,O=C(COc1ccc(F)cc1)Nc1ccc(OCc2cc(=O)n3ccsc3n2)cc1,"inconclusive: 31.6 µM [activator, partial curve]"
18,COC(=O)c1ccc2c(c1)sc(=NC(=O)c1ccc(S(=O)(=O)N3CCCCC3)cc1)n2C,"inconclusive: 39.8 µM [activator, single point]"
19,CCOC(=O)Cn1c(=NC(=O)c2cccs2)sc2cc(C(=O)OC)ccc21,"inconclusive: 17.8 µM [activator, partial curve]"
20,COc1ccc(-n2c(SC(C)C(=O)N3CCOCC3)nc3ccccc3c2=O)cc1 (stereo not drawn),"inconclusive: 31.6 µM [activator, single point]"
21,Cc1cc(-c2cccc(Br)c2)c(C#N)c(N)n1,"inconclusive: 35.5 µM [activator, single point]"

row,SMILES,Potency
1,Cc1cccc(C)c1NC(=O)CCSc1nc(-c2ccc3c(c2)OCO3)cc(C(F)(F)F)n1,"inconclusive: 28.2 µM [activator, single point]"
2,COc1ccc(-c2nc(CSc3nnc(C)n4c3cc3sccc34)c(C)o2)cc1,"inconclusive: 15.8 µM [activator, partial curve]"
3,CN(C)S(=O)(=O)c1cccc(-c2cn3cccnc3n2)c1,"inconclusive: 20 µM [activator, partial curve]"
4,Cc1c(F)cccc1NS(=O)(=O)c1ccc2c(c1)c(=O)n(C)c(=O)n2C,"inconclusive: 20 µM [activator, partial curve]"
5,Oc1cccc(-c2nc(-c3cccs3)c(-c3cccs3)[nH]2)c1,"inconclusive: 22.4 µM [activator, partial curve]"
6,O=C1c2cnc3nc(SCc4ccc(Cl)cc4)nn3c2CC2c3ccccc3CCN12 (stereo not drawn),inactive
7,O=C(CCn1c(=O)c2cccn2c2cccnc21)NCc1ccc(Cl)cc1,"inconclusive: 39.8 µM [activator, single point]"
8,Cc1ccc(Nc2nc3c(S(=O)(=O)c4ccccc4)nnn3c3ccc(Cl)cc23)c(C)c1,"inconclusive: 31.6 µM [activator, single point]"
9,COc1cc2[nH]c(=S)nc(NCCc3ccc(C)cc3)c2cc1OC,"inconclusive: 35.5 µM [activator, single point]"
10,CC(=O)N=c1sc2nc3ccccc3nc2n1N(C(C)=O)C(C)=O,"inconclusive: 15.8 µM [activator, partial curve]"
11,COc1ccc(CNC(=O)c2cc3c(=O)n(C)c4ccccc4c3n2C)cc1,"inconclusive: 39.8 µM [activator, single point]"
12,COc1ccc(-c2nc(CSCC(=O)NC3CCN(Cc4ccccc4)CC3)c(C)o2)cc1OC,inactive
13,CCOC(=O)c1cc(-c2ccc(C)cc2)nn1Cc1ccccc1,inactive
14,Cc1ccc(CNc2ccc(-c3nc(-c4ccco4)no3)cc2[N+](=O)[O-])cc1,"inconclusive: 28.2 µM [activator, partial curve]"
15,CCN(CC)S(=O)(=O)c1ccc2[nH]c(=O)c3ccccc3c2c1,"inconclusive: 39.8 µM [activator, single point]"
16,CC(=O)N1N=C(c2ccccc2)OC12CCCC2,inactive
17,CCc1ccc(NC(=O)C2CCN(c3cc(C)nc4c(-c5ccc(Cl)cc5)c(C)nn34)CC2)cc1,inactive
18,Cc1ccc(S(=O)(=O)NCC(=O)OCC(=O)c2ccc(Br)s2)cc1,"inconclusive: 17.8 µM [activator, partial curve]"
19,Cc1ccc(CN2C(=O)C(Cc3ccccc3)Nc3ncnc(N4CCN(c5ccccc5)CC4)c32)cc1 (stereo not drawn),inactive
20,COc1cccc(NC(=O)CSc2cc(=O)n(C)c3ccc(Cl)cc23)c1,"inconclusive: 39.8 µM [activator, single point]"
21,O=C(Cn1ccn(-c2cccc(Cl)c2)c(=O)c1=O)NCCc1ccccc1,"inconclusive: 31.6 µM [activator, single point]"

row,SMILES,Potency
1,CCN(CC)S(=O)(=O)c1ccc(N2CCOCC2)c(NC(=O)c2c3c(nc4ccccc24)CCC3)c1,"inconclusive: 25.1 µM [activator, partial curve]"
2,COc1ccc2nc(C)cc(SCC(NC(C)=O)C(=O)OC(C)C)c2c1 (stereo not drawn),"inconclusive: 25.1 µM [activator, partial curve]"
3,CCOc1ccc(-n2cc(C(=O)Nc3ccccc3OCC)c3cc(OC)c(OC)cc3c2=O)cc1,"inconclusive: 31.6 µM [activator, single point]"
4,CCc1ccc(-n2c(SCc3cc(=O)n4cc(Br)ccc4n3)nc3[nH]ncc3c2=O)cc1,active: 20 µM
5,COCC(C)n1c(SCc2nc3ccccc3c(=O)[nH]2)nc2ccccc2c1=O (stereo not drawn),inactive
6,CN(C)c1ccc(-c2ccc3c(=O)c4ccccc4n(C)c3c2)cn1,"inconclusive: 35.5 µM [activator, single point]"
7,CCn1c(=N)c(C(=O)NCC2CCCO2)cc2c(=O)n3cc(C)ccc3nc21 (stereo not drawn),"inconclusive: 35.5 µM [activator, partial curve]"
8,CN(C)c1ccc(/C=C(\C#N)C(=O)c2ccccc2)cc1,inactive
9,COc1ccc(-c2nc3ccccc3s2)cc1NC(=O)c1cccc([N+](=O)[O-])c1C,inactive
10,Cc1ccc(NC(=O)CSc2ccc3nnc(-c4cccnc4)n3n2)cc1,"inconclusive: 3.55 µM [activator, partial curve]"
11,CCCCOc1ccc(CNC(=O)C2CCCN(c3nnc(-n4c(C)ccc4C)s3)C2)cc1 (stereo not drawn),"inconclusive: 28.2 µM [activator, single point]"
12,CC(C)(C)S(=O)(=O)c1cnc(-c2ccc(Cl)cc2)nc1N,"inconclusive: 39.8 µM [activator, single point]"
13,COc1cccc(-c2cc(-c3cccnc3)nc(N)c2C#N)c1,"inconclusive: 31.6 µM [activator, single point]"
14,Cc1ccc2c(=O)c(C(=O)c3ccccc3)cn(CC(=O)Nc3ccccc3C)c2n1,"inconclusive: 39.8 µM [activator, single point]"
15,O=C(CSc1ccc2nnc(-c3ccc(Cl)cc3)n2n1)N1CCCc2ccccc21,"inconclusive: 39.8 µM [activator, single point]"
16,Cc1nn(CCCC(=O)Nc2cccc(C(F)(F)F)c2)c(=O)c2nn(-c3ccccc3)c(C)c12,"inconclusive: 35.5 µM [activator, single point]"
17,CCSc1nnc(NC(=O)c2cc3c(s2)CCCC3)s1,"inconclusive: 25.1 µM [activator, single point]"
18,Cc1ccc(CN2c3ccccc3-c3nc(SCC(=O)Nc4c(C)cc(C)cc4C)ncc3S2(=O)=O)cc1,"inconclusive: 35.5 µM [activator, single point]"
19,O=C(NCCc1nnc2ccc(SCC(=O)N3CCCC3)nn12)c1ccc(F)cc1,"inconclusive: 25.1 µM [activator, partial curve]"
20,COc1ccc(-c2cc(C(F)(F)F)nc(SCC(=O)NCc3cccs3)n2)cc1OC,inactive
21,C=CCOC(=O)c1sc(NC(=O)c2ccc(OC)cc2)nc1C,"inconclusive: 39.8 µM [activator, single point]"
